About 2,200 (0.71%) of roughly 310,000 compounds showed an effect of 50% or more. The effect is printed as a negative number. The list shows a part of the results.
Each compound was assayed against human ether-à-go-go-related gene (hERG) potassium channel (human, UniProt Q12809) (assay: primary screen, population patch clamp on CHO cells stably expressing hERG).
Sequence of human ether-à-go-go-related gene (hERG) potassium channel (Q12809 whole entry, looked up): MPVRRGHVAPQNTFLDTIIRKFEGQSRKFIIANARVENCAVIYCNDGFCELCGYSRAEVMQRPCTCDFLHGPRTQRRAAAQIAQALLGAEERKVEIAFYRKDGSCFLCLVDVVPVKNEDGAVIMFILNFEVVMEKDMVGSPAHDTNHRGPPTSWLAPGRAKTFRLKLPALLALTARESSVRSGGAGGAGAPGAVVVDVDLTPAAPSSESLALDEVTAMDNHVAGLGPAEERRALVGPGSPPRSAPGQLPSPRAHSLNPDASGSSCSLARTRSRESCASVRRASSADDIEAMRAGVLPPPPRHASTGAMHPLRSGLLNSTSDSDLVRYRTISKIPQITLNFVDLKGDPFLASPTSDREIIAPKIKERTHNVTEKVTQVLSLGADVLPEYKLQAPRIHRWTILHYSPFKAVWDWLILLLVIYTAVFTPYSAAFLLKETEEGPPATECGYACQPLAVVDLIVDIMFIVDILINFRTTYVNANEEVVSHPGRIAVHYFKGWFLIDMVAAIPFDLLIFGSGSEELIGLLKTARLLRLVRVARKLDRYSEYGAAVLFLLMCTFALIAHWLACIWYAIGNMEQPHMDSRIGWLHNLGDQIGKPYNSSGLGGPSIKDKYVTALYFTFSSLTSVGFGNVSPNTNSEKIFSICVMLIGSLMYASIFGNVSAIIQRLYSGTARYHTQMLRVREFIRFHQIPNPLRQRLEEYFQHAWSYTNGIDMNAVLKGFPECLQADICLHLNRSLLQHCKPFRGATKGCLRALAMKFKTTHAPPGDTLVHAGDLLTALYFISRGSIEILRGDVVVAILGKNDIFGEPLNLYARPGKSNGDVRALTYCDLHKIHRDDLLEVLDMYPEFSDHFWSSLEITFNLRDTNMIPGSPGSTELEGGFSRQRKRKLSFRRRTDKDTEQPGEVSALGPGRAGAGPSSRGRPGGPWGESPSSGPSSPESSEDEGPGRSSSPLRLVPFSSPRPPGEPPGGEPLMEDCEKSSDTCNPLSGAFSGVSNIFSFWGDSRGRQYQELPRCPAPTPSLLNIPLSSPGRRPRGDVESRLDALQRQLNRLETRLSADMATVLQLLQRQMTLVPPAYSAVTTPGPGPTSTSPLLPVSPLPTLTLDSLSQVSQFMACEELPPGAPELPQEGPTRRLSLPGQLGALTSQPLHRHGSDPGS

Row | Structure (SMILES) | hERG current change (%, negative = inhibition) at 1uM
1 | CCOC(=O)c1c(/N=C/c2ccccc2O)sc2c1CCC2 | 4.95%
2 | COc1ccccc1-n1c(SCc2cc(=O)oc3cc(O)ccc23)nc2ccccc2c1=O | -9.58%
3 | O=C(Cc1ccc([N+](=O)[O-])cc1)NCc1ccccn1 | 12.5%
4 | O=C(Cn1cnc2ccccc2c1=O)NCC(=O)N1CCC2(CC1)OCCO2 | -1.34%
5 | COc1ccccc1-n1c(N)c(C(=O)NCC2CCCO2)c2nc3ccccc3nc21 (stereo not drawn) | 7.54%
6 | O=C(Cn1ccc([N+](=O)[O-])n1)NCc1cccs1 | 4.86%
7 | CN(C)S(=O)(=O)N1CCN(S(=O)(=O)c2ccc(F)cc2)CC1 | 9.81%
8 | Cl.O=C(NCc1nc2ccccc2[nH]1)c1c(F)c(F)c(F)c(F)c1F | 5.47%
9 | O=C1C2CCCCC2C(=O)N1c1ccc(NC2CCCCC2)c([N+](=O)[O-])c1 (stereo not drawn) | 14.8%
10 | O=S(=O)(NC1CCSc2ccccc21)c1ccccc1 (stereo not drawn) | 10.6%
11 | O=C(O)C1CCN(S(=O)(=O)c2ccc(Oc3ccccc3)cc2)CC1 | 17.1%
12 | O=C(NC(Cc1ccccc1)C(=O)N1CCCC(C(F)(F)F)C1)c1ccccc1 (stereo not drawn) | 7.64%
13 | O=C1[C@@H]2CSCN2C(=O)CN1CCc1cccc(F)c1 | -10.7%
14 | CCCCCN(C(=O)CCC(=O)OCCOc1ccccc1Cl)c1c(N)n(CCCC)c(=O)[nH]c1=O | 9.07%
15 | Cn1c(CCC(=O)OCC(=O)Nc2ccc(Oc3ccccc3)cc2)nc(=O)c2ccccc21 | -0.724%
16 | COC(=O)c1ccc2nc(C)c(C)nc2c1 | 15.8%
17 | CCN(CC)C(=O)N1CCN(C(=O)c2ccc(C)cn2)CC1 | 8.85%
18 | CCOCCCNC(=O)CCS(=O)(=O)Cc1ccc(C)cc1 | 2.15%
19 | CC(C)(C)OC(=O)NC(CCCCNC=O)C(=O)O (stereo not drawn) | 5.74%
20 | O=C(O)CCCCCNC(=O)c1ccc(Br)cc1 | 5.7%
21 | Cc1ccc(C)c(S(=O)(=O)n2cnc3ccccc32)c1 | 14.1%
22 | CCNC(=S)N1CCN(S(=O)(=O)c2ccccc2C(F)(F)F)CC1 | 5.21%
23 | Cc1ccc(NC(=S)N2CCC(NC(=O)C3CCCCC3)CC2)cc1C | 11.9%

Row | Structure (SMILES) | hERG current change (%, negative = inhibition) at 1uM
24 | COc1cc(CC(=O)OCC(=O)NC2CCCCC2)cc(OC)c1OC | 13%
25 | O=C(/C=C/c1cc2ccccc2o1)c1ccccc1O | 12.8%
26 | CC(=O)N(C1=NCCCS1)c1ccc(F)cc1 | 8.25%
27 | O=C(Nc1cccc(Cl)c1)c1cc(-c2ccco2)on1 | 11.1%
28 | COc1ccc(Nc2ncnc3sc(-c4ccccc4)cc23)cc1OC | 9.37%
29 | Cc1ccc(S(=O)(=O)N2CCCCC2)cc1NC(=O)COC(=O)C1=COCCO1 | 14.1%
30 | O=Cc1c(F)cccc1N1CCCC1 | 2.68%
31 | COC(=O)C1=C2c3[nH]c4ccccc4c3CCN2C(=O)CC1 | 15.1%
32 | CCOc1ccc(NC(=O)NCCN2CCN(c3cccc(C)c3C)CC2)cc1 | 0.315%
33 | COc1cc(C(=O)NC2CC3CCCC(C2)N3C2CC2)cc(OC)c1OC (stereo not drawn) | 18.2%
34 | COc1ccc(OCCCn2ccnc2)cc1.Cl | 24.3%
35 | COc1ccc(N2CCN(C(=O)c3cccc(F)c3)CC2)c([N+](=O)[O-])c1 | -39%
36 | O=C(CSC1CC(=O)N(CCc2ccccc2)C1=O)Nc1ccc(Cl)cc1 (stereo not drawn) | 5.21%
37 | O=C(c1cc(COc2c(F)cccc2F)on1)N1CCc2ccccc2C1 | 4.47%
38 | Cc1ccc(NC(=O)CCC(=O)NNC(=O)NC2CCCCC2)c(C)c1 | -2.65%
39 | CCOC(=O)C[C@H]1c2cc(F)ccc2S(=O)(=O)N1Cc1ccc(OC)cc1 | 8.74%
40 | Cc1cc(C(=O)N/N=C/C(Cl)=C/c2ccccc2)c(C)o1 | 18.2%
41 | O=C(NC(=S)Nc1ccccn1)c1cccc([N+](=O)[O-])c1 | 9.86%
42 | O=C(NCCS(=O)(=O)NCCCc1ccccc1)c1ccccc1 | 9.44%
43 | COc1ccccc1NC(=O)c1c(C)nn(-c2ccccc2)c1Cl | 10.9%
44 | CCCCN1Cc2c(nc3cc(-c4ccco4)[nH]n3c2=O)C1=O | 8.46%
45 | CCC1(c2ccccc2)NC(=O)N(CC(=O)Nc2cc(S(=O)(=O)N3CCCCC3)ccc2OC(C)C)C1=O (stereo not drawn) | 9.04%
46 | COc1ccc(CN(Cc2ccc(OC)cc2)C(=O)c2cccs2)cc1 | -1.17%

Row | Structure (SMILES) | hERG current change (%, negative = inhibition) at 1uM
47 | CCOC(=O)c1cnc2ccc(OC)cc2c1Nc1ccc2c(c1)OCCO2 | 11.1%
48 | O=C(Nc1ccnn1C1CCN(C(=O)CCc2ccc(F)cc2)CC1)C1CCOC1 (stereo not drawn) | 0.0845%
49 | CC1(C)Cc2nc3oc4c(=S)nc[nH]c4c3cc2CO1 | 8.76%
50 | Cc1ccc(NC(=O)c2cnc(SCC(=O)NCC3CCCO3)n(C)c2=O)cc1 (stereo not drawn) | -0.201%
51 | O=C(c1ccccc1F)N1CCN(c2ccc([N+](=O)[O-])cc2-n2cccc2)CC1 | 8.49%
52 | COc1ccc(S(=O)(=O)NCC2CCCN(CC(C)(C)C)C2)cc1 (stereo not drawn) | 2.32%
53 | CCc1ncc(/C=C2\C(=O)Nc3ccccc32)[nH]1 | 11.8%
54 | O=C(CC(c1ccccc1)c1ccccc1O)NCc1ccccc1 (stereo not drawn) | 10.1%
55 | O=C(COc1ccc(Cl)cc1)NCc1nnc(SCC(=O)NC2CCCC2)o1 | -1.65%
56 | CC(=O)c1sc2nc(C)c3c(c2c1N)CCCC3 | 6.7%
57 | CCSc1nnc(NC(=O)NC2CCCCC2)s1 | 10.9%
58 | O=C(NCCCN1CCCC1=O)Nc1ccc(F)c(Cl)c1 | 8.01%
59 | Oc1ccc(N=Nc2n[nH]c(-c3ccc(Br)cc3)n2)cc1 | 8.59%
60 | COC(=O)c1ccc(NC(=O)c2c(C(=O)Nc3ccccc3)sc3nc(C)cc(=O)n23)cc1 | 11.8%
61 | Cn1c(=O)c2c(nc(NN=C3CCCC3)n2C)n(C)c1=O | 12.7%
62 | CC(C)Oc1cccc(-c2nnc(SCC(=O)Nc3ccc4c(c3)OCCO4)n2N)c1 | -2.59%
63 | CCCCCc1ccc(-c2nnc(N)s2)cc1 | 13.2%
64 | COc1cc(CN2CCSCC2)c([N+](=O)[O-])cc1OC | 11.7%
65 | CCCCn1c(N)c(N(CCC(C)C)C(=O)CC2CCCC2)c(=O)[nH]c1=O | 12.4%
66 | CN1/C(=C\C(=O)COC(=O)CNC(=O)c2ccc3ccccc3c2)C(C)(C)c2ccccc21 | 5.56%
67 | Cc1cc(C)nc(N2CCN(c3ccc(F)cc3)CC2)n1 | 14.4%
68 | NC(=O)C1CCN(C2=C(NS(=O)(=O)c3ccc(Cl)cc3)C(=O)c3ccccc3C2=O)CC1 | -11.9%
69 | COc1ccc(S(=O)(=O)n2c([N+](=O)[O-])cnc2C)cc1OC | 7.42%

Row | Structure (SMILES) | hERG current change (%, negative = inhibition) at 1uM
70 | CCN1CCN(CC(=O)Nc2ccc(N(C)C)cc2)CC1.O=C(O)C(=O)O | 8.45%
71 | CCn1c2ccccc2c2cc(NS(=O)(=O)c3ccc(C)cc3)ccc21 | 10%
72 | COc1ccc2[nH]c(C(=O)NCc3ccc4c(c3)OCO4)cc2c1 | 11.2%
73 | Cc1ccccc1-n1c(=O)c2ccccc2n(CC(=O)NCc2ccco2)c1=O | 3.89%
74 | O=C(CSc1nnc(-c2cccnc2)o1)Nc1ccc(Br)cc1 | 15.1%
75 | COc1ccc(Oc2nc3ccccc3n3cccc23)cc1 | 7.42%
76 | Cc1ccc(Cl)c(OCC(=O)Nc2sc(C)c(C)c2C#N)c1 | 14.8%
77 | COc1ccc(C2CC(c3ccc4ccccc4c3)=NN2C(=O)COC(=O)C2CCC(=O)N2)cc1 (stereo not drawn) | 6.91%
78 | Cc1cccc(C(C)C)c1NC(=O)COC(=O)CCN1C(=O)C2CC=CCC2C1=O (stereo not drawn) | 6.45%
79 | C=C1N(c2ccc(Cl)cc2)C(=O)OC1(C)C | 7.14%
80 | Cc1ccc(NS(=O)(=O)N2CCOCC2)cc1Cl | -4.43%
81 | COc1ccc(NS(=O)(=O)c2ccc3nc(COc4cccc5ccccc45)[nH]c3c2)cc1 | 11.5%
82 | CC(=O)OCCn1c(Br)nc2c1c(=O)[nH]c(=O)n2C | 6.02%
83 | O=C(OCC(=O)c1ccc[nH]1)c1ccc([N+](=O)[O-])cc1 | 14.8%
84 | Cc1ccc(S(=O)(=O)/C(C#N)=C/c2c(N3CCC(C(N)=O)CC3)nc3ccccn3c2=O)cc1 | 1.76%
85 | CCCCC(c1nnnn1CCOC)N1CCN(CC)CC1.Cl (stereo not drawn) | 15.5%
86 | COc1ccc(N2CCN(C(=O)c3ccc4c(c3)OCO4)CC2)cc1 | -2.77%
87 | CC(=O)N1CC(=O)Nc2ccc(F)cc2C1c1ccccc1 (stereo not drawn) | 6.17%
88 | Cc1cccc(-n2c(SCc3ccc([N+](=O)[O-])cc3)nnc2-c2c[nH]c3ccccc23)c1 | 15.8%
89 | COc1cc(C(=O)Nc2ccncc2)cc(OC)c1OC | 3.65%
90 | Cc1ccc(C2=NCCn3c2c2ccc(C(F)(F)F)cc2[n+]3[O-])cc1 | 6.16%

— paper PMC4336329 (PLoS ONE, 2015)
